Results are given in words; binding and its absence hold for the method and conditions named. In cells and extracts the contact can be indirect. Some entries that bind do so weakly or less than the wild type.
What was measured:
[1] = biological target: T1, TNFR-associated factor 2 (TRAF2) (human (endogenous in primary keratinocytes)) (UniProt Q12933); assay: co-IP; lysates of TNFR2-overexpressing keratinocytes stimulated with TWEAK or control buffer; target IgG overnight at 4°C, protein G, Western blot; pairs with Fn14: TWEAK-stimulated cells
T1 sequence: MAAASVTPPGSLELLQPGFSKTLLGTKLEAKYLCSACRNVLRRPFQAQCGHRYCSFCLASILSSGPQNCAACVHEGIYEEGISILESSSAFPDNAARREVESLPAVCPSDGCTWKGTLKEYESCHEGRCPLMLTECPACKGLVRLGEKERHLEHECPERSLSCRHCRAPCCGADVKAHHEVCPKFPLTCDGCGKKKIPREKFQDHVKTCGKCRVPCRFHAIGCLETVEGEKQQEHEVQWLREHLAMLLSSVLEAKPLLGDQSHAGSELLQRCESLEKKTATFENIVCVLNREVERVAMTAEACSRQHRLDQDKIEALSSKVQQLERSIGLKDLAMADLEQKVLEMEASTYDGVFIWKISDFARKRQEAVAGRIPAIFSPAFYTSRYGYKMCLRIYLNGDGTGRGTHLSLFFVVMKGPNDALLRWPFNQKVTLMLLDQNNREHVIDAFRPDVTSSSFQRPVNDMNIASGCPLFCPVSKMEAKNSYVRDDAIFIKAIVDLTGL

Chains of the proteins cited; added tags and fusions are not shown. Residues count along the entry.
UniProt P20333, residues 23-461: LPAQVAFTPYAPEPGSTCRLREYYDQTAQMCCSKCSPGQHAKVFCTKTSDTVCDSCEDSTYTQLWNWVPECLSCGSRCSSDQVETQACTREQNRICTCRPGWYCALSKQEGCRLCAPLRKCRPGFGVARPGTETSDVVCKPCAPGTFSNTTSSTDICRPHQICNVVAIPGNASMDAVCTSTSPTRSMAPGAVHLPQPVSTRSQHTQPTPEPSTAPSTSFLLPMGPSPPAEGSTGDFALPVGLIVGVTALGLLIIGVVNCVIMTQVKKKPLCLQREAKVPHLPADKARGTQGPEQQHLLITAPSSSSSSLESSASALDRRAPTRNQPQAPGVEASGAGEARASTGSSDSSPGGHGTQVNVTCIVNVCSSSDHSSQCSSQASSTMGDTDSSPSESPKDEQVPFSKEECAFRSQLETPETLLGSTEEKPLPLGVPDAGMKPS
UniProt Q9NP84, residues 28-129: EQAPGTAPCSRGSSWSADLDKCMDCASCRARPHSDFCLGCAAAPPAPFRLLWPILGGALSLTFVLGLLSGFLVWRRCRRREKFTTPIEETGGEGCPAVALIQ

[2] = biological target: T1, TNFR-associated factor 2 (TRAF2) (human (endogenous in primary keratinocytes)); assay: condition: only nonstimulated cells (without TWEAK); co-IP; lysates of TNFR2-overexpressing keratinocytes, nonstimulated (control buffer); target IgG overnight at 4°C, protein G, Western blot
[3] = biological target: T1, TNFR-associated factor 2 (TRAF2) (human (endogenous in primary keratinocytes)); assay: co-IP; lysates (RIPA buffer) of normal human primary keratinocytes, nonstimulated or TWEAK-stimulated (100 ng/ml); target IgG overnight at 4°C, protein G, Western blot; pairs with Fn14: TWEAK-stimulated cells
[4] = biological target: T1, TNFR-associated factor 2 (TRAF2) (human (endogenous in primary keratinocytes)); assay: condition: only nonstimulated cells (without TWEAK); co-IP; lysates (RIPA buffer) of normal human primary keratinocytes, nonstimulated (no TWEAK); target IgG overnight at 4°C, protein G, Western blot

| binding [1] | binding [2] | binding [3] | binding [4] | Substance |
| --- | --- | --- | --- | --- |
| binds | – | – | – | TNF receptor 2 (TNFR2), overexpressed in keratinocytes (from UniProt P20333 23-461) |
| binds | no binding | binds | no binding | fibroblast growth factor-inducible 14 (Fn14) (from UniProt Q9NP84 28-129) (receptor) |

Source: paper PMC6915140
